In PubChem BioAssay (NCI):
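Dose response: 5 concentrations. Exposure: 48 h. Format: 96-well plates. Endpoint: linear interpolation; highest concentration if not reached. GI50 marks 50% less growth. The concentration for full growth arrest is given as TGI.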

System: NCI-H322M lung
Assay: inhibition of tumour cell growth, NCI panel, 48 h

Row | Compound | GI50 [nM] | TGI [nM]
1 | COc1ccc2c(c1)c(-c1cc(N)n3nc(-c4cn(C)c5ccccc45)cc3n1)cn2C | 1640 | 3190
2 | CC(=O)Oc1ccccc1C(=O)[Se]C(=NC(C)C)NC(C)C | 575 | 1980
3 | O=C1N/C(=N\c2nccs2)S/C1=C\c1ccc([N+](=O)[O-])cc1 | 9690 | 81700
